Measurements published in publication PMC9477748, “Organizing structural principles of the IL-17 ligand–receptor axis” (Nature, 2022).

Target: T1, IL-25–IL-17RB complex (2:2) (human, UniProt Q9H293 30-177; Q9NRM6 18-288)
T1 construct: IL-25 (IL-17E), human, amino acids 30-177; signal peptide in the construct; IL-17 receptor B (IL-17RB), human, amino acids 1-288; also called RB–IL-25; source: IL-25 and IL-17RB co-expressed in Expi293F GnTI- cells, purified (Ni-NTA, SEC) for cryo-EM; copies: 2 + 2
T1 sequence (looked up) 1: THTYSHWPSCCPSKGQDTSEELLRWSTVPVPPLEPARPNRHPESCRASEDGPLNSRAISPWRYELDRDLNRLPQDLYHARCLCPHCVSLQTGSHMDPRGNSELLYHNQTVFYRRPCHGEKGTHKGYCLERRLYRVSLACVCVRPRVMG
T1 sequence (looked up) 2: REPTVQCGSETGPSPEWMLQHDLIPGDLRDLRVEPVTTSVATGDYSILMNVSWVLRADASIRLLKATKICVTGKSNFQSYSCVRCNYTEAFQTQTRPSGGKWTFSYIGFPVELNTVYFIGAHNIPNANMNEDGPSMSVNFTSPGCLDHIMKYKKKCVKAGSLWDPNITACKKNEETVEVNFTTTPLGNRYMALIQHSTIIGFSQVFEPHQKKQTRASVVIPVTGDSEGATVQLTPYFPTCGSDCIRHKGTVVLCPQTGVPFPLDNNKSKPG
Experiment: SPR; Biacore T100; about 300 RU of site-specifically biotinylated IL-17RA immobilized on a Series S Sensor Chip SA; analytes in twofold serial dilutions; regeneration 2 M MgCl2; steady-state affinity analysis
Conditions: both partners purified

Kd: 5.2 µM
B1: site-specifically biotinylated IL-17RA, immobilized (receptor)
chain: not shown
modifications: biotin (site-specific, by the biotin ligase BirA)
notes: signal peptide in the construct; IL-17 receptor A (IL-17RA), human, […]; The methods list no IL-17RA construct with an Avitag, though only proteins with Avitags are said to have been biotinylated; the limits […] are those of the only soluble IL-17RA named; also called immobilized IL-17RA; source: Expi293F cells, purified (Ni-NTA, SEC), biotinylated with BirA
